The values that follow come from ChEMBL document CHEMBL4888484, “Replenishing the malaria drug discovery pipeline: Screening and hit evaluation of the MMV Hit Generation Library 1 (HGL1) against asexual blood stage Plasmodium falciparum ,using a nano luciferase reporter read-out” (2022).

Molecules are shown by their SMILES. Among all 150,000 compounds or so, about 540 (0.36%) showed an effect of 50% or more. The list shows a part of the results.

The subject of the test is Plasmodium falciparum. The test is described as follows: Primary screen in NF54 nanoGlo assay, in single point, at 2uM, 72h; a lower Z score goes with more inhibition. The conditions noted are these: timepoint 72 hour. The test is classed as functional, Erythrocyte.
With `COc1ccc(-c2nn(-c3ccccc3C)cc2CNC[C@H]2COCCO2)cc1F`, the “% Inhibition” value was -14% and the Z score came out at 1.22.
Taken in the same sequence, the figures for `CC1(C)CN(C(=O)c2cccc(N)n2)CCO1` were 11% and -1.52.
For `Cc1cccc(C(C)(C)NCC(=O)NC(C)C)c1`, the “% Inhibition” value was -7% and the Z score is on record as 0.95.
Taken in the same sequence, the figures for `CC(=O)N1CCc2c(NC(=O)NCc3ccccc3CC(C)C)cccc21` were -2% and 0.29.
Taken in the same sequence, the figures for `CC1CN(C(CNCc2cnn(C(C)C)c2)c2cccs2)CCO1` (centres undefined) were -6% and 0.79.
Taken in the same sequence, the figures for `COc1ccccc1NC(=O)COc1cccc(-c2noc(COc3ccccc3)n2)c1` were 6% and -0.74.
For the molecule `CN(C)c1cc(NC(=O)CC2=CCCCC2)ncn1`, the “% Inhibition” value is -9% and the Z score is 1.74.
Taken in the same sequence, the figures for `COCc1nc([C@@H]2COCCN2C(=O)CC(C)(C)OC)no1` were -13% and 1.79.
Taken in the same sequence, the figures for `COC(=O)c1[nH]c(C)cc1NS(=O)(=O)c1c(F)c(F)cc(F)c1F` were 26% and -2.99.
As for `NC(=O)N1CCC[C@H]1C(=O)NC1CC(=O)N(C2CC2c2ccccc2)C1` (some centres undefined), the “% Inhibition” value stood at 31% and the Z score is given as -0.76.
Taken in the same sequence, the figures for `CC(C)N(C(=O)NC(=O)Nc1ncccn1)S(C)(=O)=O` were -43% and 5.
Taken in the same sequence, the figures for `COCc1ncc(CN2CCOc3c(O)cc(-c4ccc(C)cc4)cc3C2)cn1` were -8% and 0.94.
Taken in the same sequence, the figures for `CN(C)Cc1ccccc1C(=O)N1CCC2(CC1)COC(=O)N2` were -3% and 0.48.
In the case of `Cc1ccc(-n2nc(C(=O)NCCN3CCOCC3)c(=O)n(Cc3ccc(C(F)(F)F)cc3)c2=O)cc1`, the “% Inhibition” value is recorded as -9% and the Z score came out at 1.16.
Taken in the same sequence, the figures for `O=C(Nc1nccs1)c1ncc(-c2ccccc2)o1` were 0% and -0.03.
Taken in the same sequence, the figures for `CC(C)CN(Cc1ccccc1)C[C@H](O)COC(C)(C)C` were -12% and 2.38.
Taken in the same sequence, the figures for `CN(C)c1ncc(Br)cc1C(=O)NCc1cccc(=O)[nH]1` were -3% and 0.52.
On to `COc1ccc(COCC(=O)N2CCC[C@@H]3C[C@@]32C(N)=O)cc1`, for which the “% Inhibition” value is listed as -1% and the Z score came out at 0.17.
As to `CC(C)C[C@@H]1N[C@H](C(=O)NCc2ccc(F)cc2)Cc2c[nH]c3cccc1c23`, the “% Inhibition” value stood at 2% and the Z score was -0.24.
Taken in the same sequence, the figures for `O=C(c1ccco1)N(Cc1ccc(-c2cc(Cl)ccc2Cl)o1)[C@H]1CCS(=O)(=O)C1` were -3% and 0.36.
Taken in the same sequence, the figures for `CCCn1nccc1S(=O)(=O)NCc1cc(C2CC2)on1` were 19% and -2.68.
Taken in the same sequence, the figures for `Cc1c(CN2C[C@@H](CN(C)CCO)[C@@H](CO)C2)[nH]c2c(Cl)cccc12` were -4% and 0.51.
Turning to `O=C1NC2(CCCCC2)C(=O)N1Cc1cc(Cl)c2c(c1)OCCO2`, the “% Inhibition” value is listed as -32% and the Z score was found to be 3.72.
Turning to `O=C(Cc1c(F)cccc1Cl)N1CCN(c2cccc3c2C(=O)N(Cc2ccncc2)C3=O)CC1`, the “% Inhibition” value is listed as 8% and the Z score is -1.
Taken in the same sequence, the figures for `Cc1ccc(C)c(-c2n[nH]cc2CN2CCn3nc(C(=O)O)cc3C2)c1` were -15% and 1.91.
Taken in the same sequence, the figures for `Cc1csc(C(C)(C)NC(=O)NCCC2=CCOCC2)n1` were -11% and 1.51.
As to `O=C(Cc1c[nH]c2ccccc12)N[C@H]1CCCNC1=O`, the “% Inhibition” value is given as -9% and the Z score turned out to be 0.86.
For the molecule `COCCN1CCC(c2ncnn2Cc2cccc(OC)c2)CC1`, the “% Inhibition” value was -14% and the Z score is recorded as 1.91.
On to `Cc1cccc([C@@H](C)CNC(=O)N(CC(=O)O)C(C)C)c1`, for which the “% Inhibition” value is given as -4% and the Z score was found to be 0.71.
As to `C[C@@H](CS(=O)(=O)N(C)C)NCc1cccc(N(C)C)c1`, the “% Inhibition” value is given as -3% and the Z score is reported as 0.35.
Taken in the same sequence, the figures for `O=C(N[C@H]1[C@@H]2COC[C@@H]21)N1CCC(C2CCOC2)C1` (some centres undefined) were -1% and 0.2.
Taken in the same sequence, the figures for `O=C(COc1ccc(S(=O)(=O)N2CCCC2)cc1)N1CCCCCC1` were -8% and 1.19.
Taken in the same sequence, the figures for `CC1(C)CC(=O)c2c(nc3c(c2-c2ccccc2)C(=O)CC(C)(C)C3)C1` were -8% and 1.09.
In the case of `CCCNC(=O)c1c(/C=C(/O)c2ccccc2)nc(-c2ccccc2)c(C#N)c1C`, the “% Inhibition” value was -42% and the Z score stood at 4.96.
Taken in the same sequence, the figures for `O=C(NCC1C2COCC12)N1C2CCC1CC1(C2)CC1(F)F` (centres undefined) were -8% and 1.25.
Taken in the same sequence, the figures for `CCN1c2cc(C)ccc2-n2cccc2C12CCN(S(=O)(=O)c1c(C)noc1C)CC2` were 4% and -0.58.
Taken in the same sequence, the figures for `O=C(c1ccc(Cl)cc1)N1CCCC1C1CCCN(Cc2ccccc2)C1` (centres undefined) were -5% and 0.7.
Consider `COC(=O)C(OC(=O)C1CCC(=O)NC1)C(C)C` (centres undefined), for which the “% Inhibition” value is 2% and the Z score is given as -0.33.
Taken in the same sequence, the figures for `Cc1ccc2c(c1)CCCN2C(=O)c1sc(C)nc1C` were 10% and -1.56.
Taken in the same sequence, the figures for `CCCc1nc(C(=O)N2CC[C@H](c3ccnc(-c4ccncc4)c3)C2)cs1` were -17% and 1.73.
In the case of `Cc1cccc(Cn2cnc3c2c(=O)n(C2CC2)c(=O)n3-c2cccc(C)c2)c1`, the “% Inhibition” value is listed as -18% and the Z score stood at 1.7.
Taken in the same sequence, the figures for `CC(C)n1nc(Cc2cccs2)nc1-c1ccc(CO)cc1` were -19% and 1.72.

By % Inhibition is commonly meant the relative decrease from the control value, in per cent.
